The RNAGym collection of RNA variant scans (doi:10.7554/elife.90254)
Read counts are not given, so values of variants with three or more changes are uncertain.

B1: LINE1-mini (parent)
chain: GGCAGAGCUCAACACAGCGUGGCAAAGUGGCUGUGGCUAGACUGCC

Variants of: B1
Experiment: self-cleavage, relative activity (ratio to wild type); higher = more cleavage; in vitro, sequencing; the parent is a self-cleaving ribozyme

Row | Variant | self-cleavage
1 | G2U A14U A25G G35U | 0.08
2 | C3A A4G C13G | 0.42
3 | G2U A14U G22A | 0.02
4 | G2U C13A A25C A26C U34A C42A | 0.01
5 | G2U U9G C18U U43C | 0.03
6 | G2U G21A C37G | 0.07
7 | G2U U20A G22C | 0.08
8 | G2U C13G C15U | 0.03
9 | G2U U32G G35U | 0.03
10 | G2U C10A C18U A25U | 0.01
11 | G2U C3A A4G C23U C31U U34C G36C | 0.02
12 | G2U G22A G35U | 0.15
13 | G2U C8G A25G U28C | 0.1
14 | G2U G36C C37U U38G C42A | 0.02
15 | G2U C31U C46A | 0.04
16 | G2U C31U C46U | 0.01
17 | G2U C8A G21C U32G G35A | 0.05
18 | G2U C8U G36A | 0.08
19 | G2U G5C C13U A26U A41U G44A | 0
20 | G2U C37G U38A | 0.18
21 | G2U G35A C45U | 0.02
22 | G2U G5C C13A A14U C46U | 0.01
23 | G2U G5C U32G C37G A39C | 0.01
24 | G2U C3A G7U G22U A24U A25U | 0.08

Row | Variant | self-cleavage
25 | G2U G17C C18G C42G C45U | 0.01
26 | G2U A4U G22U A26G G30U | 0.02
27 | G2U A14C G19U A26C | 0.01
28 | G2U A4U C8A C15U C23G G27A | 0.24
29 | G2U G19C A26C | 0.04
30 | C3A A4C G7U G27U U28A U38A | 0.21
31 | G2U G22C U28C G29C G36C | 0
32 | G2U G7U C46U | 0.04
33 | G2U G5C G17C | 0
34 | G2U A14U G17C A41C | 0
35 | G2U C15A A26U | 0.03
36 | G2U C10A U28C U34A U38G | 0
37 | G2U G7C C10U G44C | 0.04
38 | G2U C3A C15A C31A C37U G40A | 0.17
39 | G2U G22A C37A G44U | 0.08
40 | G2U A25C A41U | 0.04
41 | C3A A4U A6C A11U G21A | 0.03
42 | G2U A14C G22C C46U | 0.06
43 | G2U G27C G29U G35U | 0.15
44 | G2U G19U C23G C31G | 0.01
45 | G2U G21C A24U G36A | 0.01
46 | G2U A16G G29U | 0.24
47 | G2U G35U G36C G44A | 0.01
48 | G2U A12C A26U G35U | 0

Row | Variant | self-cleavage
49 | G2U C3U G22A C31U G33U G35C | 0.1
50 | G2U C10A C23U C37G G40U | 0.01
51 | G2U A11U A16G G29U | 0.03
52 | G2U G21U A26G G29U U32C | 0.04
53 | G2U C8G C18A | 0.02
54 | G2U C18A C23A | 0.05
55 | G2U G19C G22U | 0.27
56 | C3A A4G C31A G44C C45G | 0.01
57 | G2U C18A G29C U34A | 0.01
58 | G2U A16G G21C G29C | 0.02
59 | G2U C37U C42G U43A | 0
60 | G2U G22A G27U A39U | 0.02
61 | G2U G5C G7U A11C C37A A41U C42G | 0.01
62 | G2U U28C A39G | 0.02
63 | G2U A11G A12G | 0.01
64 | G2U G21C A39C | 0.02
65 | G2U G5U G27A C42U U43C | 0.02
66 | G2U C8G A25C | 0.03
67 | G2U C3U A11G U32G | 0.02
68 | G2U U9G C13U C18G C45A | 0.02
69 | G2U C8A U28G | 0.06
70 | G2U C10A G29A | 0.02
71 | G2U U9A A12G C13U G17U U32A G35A G36C U43C | 0.02
72 | G2U U20G G22U A26U C42A G44C | 0.04

Row | Variant | self-cleavage
73 | G2U A26U U43G G44A | 0.03
74 | G2U C13A C23G G44U | 0.01
75 | G2U A11U C13A G35C G36A | 0.02
76 | G2U A6C G7U | 0.17
77 | G2U C23U G30A | 0.08
78 | G2U A24C G30C G33C | 0
79 | G2U U9A C31G G36C | 0
80 | G2U C10A G29A G30A | 0.02
81 | G2U A6U G33A | 0.07
82 | G2U C13A G22C C42U | 0.06
83 | G2U A4U C15U G29A | 0.05
84 | C3A A6C G21U | 0.2
85 | G2U A6G G22C A26U G33C | 0.01
86 | G2U A6U C10A C13A G17C C31U G33U | 0
87 | G2U U9C G22U A26G | 0.04
88 | G2U A4U A12C C13U G22A | 0.03
89 | G2U C13A C18A G33A | 0.01
90 | G2U G7A C8U A11C G35U U38C | 0.02
91 | G2U A16C A24C | 0.03
92 | G2U G7A C18U G21A A24G G30A | 0.02
93 | G2U A6U A14C G17U G35C | 0.02
94 | G2U A16G G21U G29C | 0.14
95 | C3A A4G C15A G36U U43A | 0.06
96 | G2U G19C U20G C37U | 0.01

Row | Variant | self-cleavage
97 | G2U C15U G40U | 0.11
98 | C3A A6C C8G A11C C31U | 0.02
99 | G2U C31U G35U | 0.01
100 | G2U A4G G7U G19C G29U | 0.04
101 | G2U U32A U34A | 0.03
102 | G2U A16C G22U U34A G36U C37G | 0.02
103 | G2U U20G U28C C45A | 0.55
104 | G2U G5U G17A A39G C42G C45U | 0.01
105 | G2U A24C U28G | 0.15
106 | G2U A6G G7U C13A G17A C37U | 0.03
107 | G2U C8G C10A G44A C45A | 0
108 | G2U C8U A24U G33C G35U G36A | 0.05
109 | G2U G21U U32A G40U | 0.2
110 | G2U G27A U34A A39C | 0.04
111 | G2U G17C G29C G44C | 0.06
112 | G2U A6G G21C | 0.03
113 | G2U C8U U38C C42U | 0.01
114 | G2U C8A C23U U38A | 0.03
115 | G2U C3U A6U | 0.14
116 | G2U A4G G22A C23A C42A | 0.21
117 | G2U A12C G17A G22C | 0.01
118 | G2U G22A C46A | 0.05
119 | G2U A26C G29U C31G | 0.03
120 | G2U C10A U20C A26C | 0.04

Row | Variant | self-cleavage
121 | G2U A4U G17C G36U G40A C42U C45A | 0.02
122 | G2U A4G G21U C42G | 0.01
123 | G2U C8A C46A | 0.07
124 | G2U A14C G17U G22U C23A G30U | 0.01
125 | C3A A4C G7U | 0.18
126 | C3A A4C A11C G29A C45A | 0.01
127 | G2U C10A C23U G40C | 0
128 | G2U G5U C13A G33C U43G | 0
129 | G2U A11U C15G A24C G27U | 0.01
130 | G2U C8A A14G C42A | 0.06
131 | G2U C13G C18G | 0.01
132 | G2U G19U U20C C37U | 0
133 | G2U C10A U34G | 0.04
134 | G2U G19A C45U | 0.28
135 | G2U C13A A14U C37A C42A C46A | 0.09
136 | G2U C31A C37U | 0.05
137 | G2U C8A A14C A16G | 0.07
138 | G2U G7A G30U | 0.02
139 | G2U U9A A24C C42U C45U | 0.04
140 | G2U C10A C13A | 0.31
141 | C3A A4U A14U C42A | 0.1
142 | G2U C15A C18G G19C | 0.13
143 | G2U C3G G35U | 0.02
144 | G2U G5C G19C | 0.03

Row | Variant | self-cleavage
145 | G2U G7A G17U G30C G35C A39U | 0.02
146 | G2U A25G G27A C31U | 0.04
147 | G2U U9A C18U U28C | 0.01
148 | G2U G27A U38C A41C | 0.01
149 | G2U G5C G21A G27C G29C | 0.02
150 | G2U A6C A12U C37G G40U U43A | 0
151 | G2U C3A G5U G40U | 0.12
152 | G2U A12U A14U G17A G44U | 0.01
153 | G2U A24G G27C C31G | 0.02
154 | G2U G7U G29C | 0.02
155 | G2U C3U A6U A11G C13G | 0.03
156 | C3A A4U C31A C46U | 0.1
157 | G2U A16U G19U C23A A26G C37G | 0.19
158 | C3A A6C G21C C45U | 0.36
159 | G2U A12U G29U | 0.04
160 | G2U A4U U20C A25G | 0
161 | G2U A12G U43A | 0.07
162 | G2U U9A C31U C42A G44U | 0.01
163 | G2U G35U C42U | 0
164 | G2U G30U A41U | 0.11
165 | C3A A4U C18A A25G A41C C45A | 0.04
166 | G2U U20G C46U | 0.06
167 | G2U A24C A26G G33C | 0.02
